84 compounds from ChEMBL document CHEMBL1201862, “PubChem BioAssay data set” (2004) can be followed below.

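48-hour exposure; five concentrations; linearly interpolated endpoints. GI50: concentration for 50% inhibition of growth.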 Active and inactive are the calls of the source. Cut-off read from the data, not from the text of the source: active = GI50 up to about 1.1 µM and inactive = higher. A value given as a limit tells only on which side of the number the result lay.

For the test, the system named is NCI-H322M. Put plainly: NCI tumour cell line growth inhibition, 48 h.
Consider `COc1ccc(OC)c2c(=O)c3ccccc3[nH]c12`, for which the GI50 is inactive: 60.4 µM.

On to `O=C(NNCC(O)COc1ccccc1)c1ccccc1` (centres undefined), for which the GI50 was inactive: > 100 µM.

`CC(NC(=O)c1ccc(Cl)c(Cl)c1)c1ccc(-c2ccccc2)cc1` (centres undefined): the GI50 is inactive: 48 µM.

For the compound `OCCSCC(O)Cn1cnc2c(O)nc(Nc3ccccc3)nc21` (centres undefined), the GI50 is inactive: > 100 µM.

As to `CCOC(=O)c1cc2c(=Cc3ccc(N(C)C)cc3)c3ccccc3n2[n+]1C`, the GI50 was inactive: 1.41 µM.

Consider `CN(C)c1cccc(F)c1C(=O)NC(=O)Nc1ccc(Cl)cc1`, for which the GI50 is inactive: 8.69 µM.

For the compound `Cc1cc(NC(=O)NC(=O)c2ccccc2NC(=O)CN)ccc1Oc1ncc(Br)cn1`, the GI50 is inactive: 1.33 µM.

In the case of `COCCOc1nc(-c2ccccc2)nc2ccccc12`, the GI50 was inactive: > 100 µM.

As to `O=C(/C=C/c1ccccc1O)c1cccnc1`, the GI50 was inactive: > 100 µM.

In the case of `Cc1ccc(C2=NOC(=O)[C@@H]3CCCC[C@@H]23)cc1`, the GI50 is inactive: > 100 µM.

As for `c1cnc2c(c1)-n1cccc1C1(CCCCC1)NN2`, the GI50 is inactive: 90.2 µM.

In the case of `CC(C)(CN1CCCCC1)C(=O)/C=C/c1ccc(Cl)c(Cl)c1`, the GI50 is inactive: > 100 µM.

With `Clc1ccc(C2=CCN3CC=C(c4ccc(Cl)cc4)C23)cc1`, the GI50 was inactive: 16.3 µM.

With `O=C(/C=C/c1ccc([N+](=O)[O-])o1)N1CCN(Cc2ccccc2)CC1`, the GI50 is inactive: 11 µM.

Take `CN(C)CC(CN(C)C)c1ccccn1`: the GI50 was inactive: > 100 µM.

With `Nc1cc2c(cc1[N+](=O)[O-])[nH]c1c(-c3ccccc3)nccc12`, the GI50 is inactive: 17.8 µM.

In the case of `O=C1CCCc2ccc3c(c21)CC1(Cc2cc4c(cc2C1)CCCC4)C3`, the GI50 is inactive: 33.7 µM.

Take `N=C/N=C/C(=S)O[C@@H]1C(=O)N2CCC[C@@]23CCCC[C@@H]13`: the GI50 was inactive: > 12.5 µM.

Take `CC(C(=O)O)C(C)(O)C(=O)O` (centres undefined): the GI50 is inactive: > 100 µM.

Take `COc1cccc2c1OC(c1cccc3ccccc13)C([N+](=O)[O-])=C2` (centres undefined): the GI50 was inactive: 1.96 µM.

Take `O=c1[nH]cc(/N=C/c2cc(Cl)ccc2O)c(=O)[nH]1`: the GI50 was inactive: 30.1 µM.

As for `N#CC(C#N)=C1c2ccccc2C(=NN)c2ccccc21`, the GI50 was inactive: > 100 µM.

On to `C=C=C(CC1CCCCC1=O)S(=O)(=O)c1ccccc1` (centres undefined), for which the GI50 was inactive: > 5.46 µM.

`Cc1ccc(C)n1-n1c(Cc2ccc(Cl)cc2)n[nH]c1=O`: the GI50 was inactive: > 100 µM.

On to `O=C1Cc2cc3ccccc3nc2-c2ccccc2N1`, for which the GI50 was inactive: 22.4 µM.

For `CC(C)=CCc1cc(C2COc3cc4c(c(O)c3C2=O)C=CC(C)(C)O4)c(O)cc1O` (centres undefined), the GI50 is inactive: 16.5 µM.

`O=C(O)CC(NC(=O)/C(=C/c1ccccc1O)NC(=O)c1ccccc1)C(=O)O` (centres undefined): the GI50 is inactive: > 100 µM.

Regarding `OCCOc1ccccc2cccc1-2`, the GI50 is inactive: > 100 µM.

With `CN1CCC(O)(C(C)(C)C)CC1`, the GI50 is inactive: > 100 µM.

With `CCCCNC(=O)C1C2CCC(O2)C1C(=O)O` (centres undefined), the GI50 was inactive: 86.7 µM.

Consider `O=C1C(Cl)C(c2cc(Br)ccc2O)N1n1cnc2ccccc2c1=O` (centres undefined), for which the GI50 is inactive: 12.2 µM.

With `CC(=O)NC(CCCNC(=O)NCCCl)C(=O)NCc1ccccc1` (centres undefined), the GI50 is inactive: > 100 µM.

Regarding `COc1ccc(CC(COS(=O)(=O)c2ccc(C)cc2)NS(=O)(=O)c2ccc(C)cc2)cc1` (centres undefined), the GI50 was inactive: 16.1 µM.

With `Cc1nc2ccccc2c(=O)n1NC(=O)Cc1ccccc1`, the GI50 is inactive: > 100 µM.

For `O=C1CSC(c2cccs2)N1c1nc2cc3sc(N4C(=O)CSC4c4cccs4)nc3cc2s1` (centres undefined), the GI50 was inactive: 49.1 µM.

`CCNC(=O)OCC1C2=C(C(=O)C(C)=C(N)C2=O)N2CC3C(N3C)C12OC` (centres undefined): the GI50 was inactive: 25.8 µM.

Turning to `OC1OC(c2ccco2)C(F)(F)C(F)(F)C1(F)F` (centres undefined), the GI50 was inactive: > 100 µM.

Turning to `CCCCCCCCCc1c(Cl)nc(Cl)nc1Cl`, the GI50 was inactive: 17.7 µM.

As to `COc1ccc(CSc2ccccc2Cn2cccc2)cc1OC`, the GI50 was inactive: > 100 µM.

For the compound `Cc1cc(NCCCCCCCNc2cc(C)nc3cc([N+](=O)[O-])ccc23)c2ccc([N+](=O)[O-])cc2n1`, the GI50 is inactive: 10.1 µM.

On to `COC(=O)C1C=NNC1C(=O)OC` (centres undefined), for which the GI50 was inactive: > 100 µM.

Take `c1cncc(C2c3[nH]c4ccccc4c3CCN2CCN2CCCCC2)c1` (centres undefined): the GI50 is inactive: > 100 µM.

Turning to `CC(=O)OCC(C)C1=C(OC(C)=O)C(=O)C2(C)C/C=C(/C)CC/C=C(\C)CCC(OC(C)=O)C(C)CCC12` (centres undefined), the GI50 is inactive: 17.3 µM.

Regarding `Cc1ccc(S(=O)(=O)N2c3ccccc3[C@H]3CCC=C[C@H]32)cc1`, the GI50 is inactive: 21.6 µM.

As to `CCOC(=O)CNC(=O)C(CSCC1C(=O)Nc2ccccc21)NC(=O)CCC(N)C(=O)OCC` (centres undefined), the GI50 is inactive: 4.83 µM.

With `CCOC(=O)c1c2ccccc2n2c(=O)n(-c3ccc(OC)cc3)nnc12`, the GI50 was inactive: 56.2 µM.

Turning to `CC12CCC(=O)N1c1cccnc1N2` (centres undefined), the GI50 was inactive: > 100 µM.

On to `CC(/C=C/NNC1=NN=C(c2ccccc2)C(c2ccccc2)N1)Sc1ccccc1N` (centres undefined), for which the GI50 is inactive: 11.1 µM.

`CC(C)/C(Cl)=N\OC(=O)Nc1ccc(F)c([N+](=O)[O-])c1`: the GI50 was inactive: 13.1 µM.

Turning to `Cc1cccc2c1NC(c1c(C)[nH]c3ccccc13)C2` (centres undefined), the GI50 was inactive: 75.9 µM.

In the case of `COc1ccc2nc3ccc(OC)cc3c(SCCCl)c2c1`, the GI50 is inactive: 38.7 µM.

With `CCCCCCCCCCCCOC1C(COCCN2CCCC2)OC2OC(C)(C)OC21` (centres undefined), the GI50 is inactive: 10 µM.

As for `Cc1cc2c(C)nn(Cc3ccc(Cl)cc3Cl)c2c(C#N)c1C`, the GI50 is inactive: > 100 µM.

In the case of `NCc1ccc(O)c(O)c1O`, the GI50 was inactive: 25 µM.

In the case of `CN(C)/C=N\c1nncc2[nH]cnc12`, the GI50 was inactive: > 100 µM.

For the compound `O=C1c2ccccc2C(=O)N1C/C=C/CO`, the GI50 was inactive: > 100 µM.

As for `COC(=O)C(Cc1ccccc1)/N=C/c1c(O)c(O)c(C(C)C)c2cc(C)c(-c3c(C)cc4c(C(C)C)c(O)c(O)c(/C=N/C(Cc5ccccc5)C(=O)OC)c4c3O)c(O)c12` (centres undefined), the GI50 was inactive: 16.7 µM.

With `CC(=O)NC1C(OCc2ccccc2)OC(CO)C(O)C1OCC(=O)N[C@@H](C)C(=O)N[C@H](CCC(=O)NCCCCNc1c2ccccc2nc2cccc([N+](=O)[O-])c12)C(N)=O` (some centres undefined), the GI50 is inactive: 3.96 µM.

In the case of `[C-]#[N+]C1(C(=O)OCC)CC1`, the GI50 is inactive: > 100 µM.

On to `COc1ccc2c(c1)CN([C@@H](C)[C@H]1CC[C@H]3[C@@H]4CC[C@H]5C[C@@H](O)CC[C@]5(C)[C@H]4CC[C@]13C)CO2`, for which the GI50 is inactive: 3.05 µM.

For `COc1ccc2c(c1)CCc1c-2[nH]c2ccc(OC)cc12`, the GI50 was inactive: > 100 µM.

With `COC(=O)C(NC(=O)C12CCC(C)(C(=O)O1)C2(C)C)c1cc(C(C)(C)C)c(O)c(C(C)(C)C)c1` (centres undefined), the GI50 was inactive: > 100 µM.

As to `CCCCc1ccc(-n2sc3ncc([N+](=O)[O-])cc3c2=O)cc1`, the GI50 was inactive: 8.07 µM.

`CCc1cccc(C(C)(C)C)c1NC(=S)N/C=C(/C#N)C(N)=O`: the GI50 was inactive: > 100 µM.

Take `CC(C)CC(CNC(Cc1ccc(Cl)cc1)C(N)=O)NC(=O)C(Cc1c[nH]cn1)NC(=O)CNC(=O)C(NC(=O)C(C)NC(=O)C(Cc1c[nH]c2ccccc12)NC(=O)C(CCC(=O)O)NC(=O)C(N)Cc1ccccc1)C(C)C` (centres undefined): the GI50 is inactive: > 133 µM.

As for `OCC(O)C(OC1OC(CO)C(O)C(O)C1O)c1nn(-c2ccccc2)c2nc3cc(Cl)ccc3nc12` (centres undefined), the GI50 is inactive: > 100 µM.

On to `O=C(O)CCCN/C(=C1\C(=O)C(=O)N(c2ccccc2)C1=O)c1ccccc1`, for which the GI50 is inactive: > 100 µM.

As to `Cc1ccc(C(O)c2cnc(C)n2Cc2ccccc2)cc1` (centres undefined), the GI50 was inactive: > 100 µM.

With `CC(=O)N/N=C1\CC(C)(C)C2CCC1C2` (centres undefined), the GI50 was inactive: > 100 µM.

`O=c1c2ccc(Cl)cc2oc2c(CNc3ccc(S(=O)(=O)Nc4ncccn4)cc3)cccc12`: the GI50 is inactive: > 100 µM.

For the compound `O=C(N/N=C/c1ccccc1O)c1ccccc1Nc1ccccc1C(=O)N/N=C/c1ccccc1O`, the GI50 is active: 0.434 µM.

Take `COC(=O)c1cc2c(cc1Cl)Sc1nnc(Nc3ccc(C)cc3)n1S2(=O)=O`: the GI50 is inactive: 10.2 µM.

Turning to `CC(=O)Nc1ccc(S(=O)(=O)c2nnc(NC(C)=O)s2)cc1`, the GI50 is inactive: > 100 µM.

For the compound `COc1ccc(C2=NN(C(=O)COc3ccc(Cl)cc3)C(O)(c3ccc(Cl)cc3)C2)cc1` (centres undefined), the GI50 was inactive: > 100 µM.

On to `COc1ccc(C[C@H]2COC(=O)[C@@H]2Cc2cc(OC)c(OC)c(OC)c2)cc1OC`, for which the GI50 is inactive: > 100 µM.

With `CC1=NC(=N)N=C(C)C1/N=N/c1ccc2[nH]c(C)nc2c1` (centres undefined), the GI50 was inactive: > 100 µM.

On to `COC(=O)NN1C(C)=C(C(=O)OC)C2(C#N)C(C(=O)OC)=C(C)N(NC(=O)OC)C12N` (centres undefined), for which the GI50 was inactive: > 100 µM.

As to `C/C(=N/N)c1sc(-c2nc(C)c(/C(C)=N\N)s2)nc1C`, the GI50 is inactive: > 100 µM.

On to `Cc1ccc2c(=O)c3cccc(CC(=O)O)c3[nH]c2c1C`, for which the GI50 was inactive: > 100 µM.

For the compound `N=C(N)NCCCC(=O)O`, the GI50 is inactive: > 100 µM.

As for `C=C(C)C(=O)OC1C[C@H](COC(C)=O)C2CC=C(CO)C2C2OC(=O)C(=C)[C@H]12` (some centres undefined), the GI50 is inactive: > 100 µM.

Consider `[BH3-][P+]1(CC[P@@+]([BH3-])(c2ccccc2)c2ccccc2OC)[C@@H](C)[C@@H](O)[C@H](O)[C@@H]1C` (some centres undefined), for which the GI50 was inactive: 13 µM.

`CC(=O)OC1C/C(C)=C/[C@H](O)CC(C)/C=C/[C@@]2(C)CCC(C(C)(C)O)C12` (some centres undefined): the GI50 is inactive: > 100 µM.

Turning to `NCCCNCCCCN(CCCN)/[N+]([O-])=N\O`, the GI50 is inactive: > 100 µM.
